Data reported in the supplement of paper PMC8728848.
The list shows a part of the results.

Experiments:
Assay in all cases: glycan array binding signal (z-score within array); higher = stronger binding
Details in all cases: glycan notation: IUPAC condensed, linker removed
Neu5Ac(a2-8)Neu5Ac = target: Neu5Ac(a2-8)Neu5Ac
Method in brief: (§1)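 Arrays were curated from the Consortium for Functional Glycomics database, 3228 in total, and kept only where the protein sequence was available. Binding is expressed as a within-array Z-score. This score was averaged across arrays of the same protein sequence at different concentrations or buffers and across linkers, and negative values can be read as non-binding.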

[1] = target: Neu5Ac(a2-8)Neu5Ac(a2-3)Gal(b1-3)GalNAc(b1-4)[Neu5Ac(a2-3)]Gal(b1-4)Glc
Method in brief: as §1

[2] = target: Neu5Ac(a2-8)Neu5Ac(a2-3)Gal(b1-3)GalNAc(b1-4)[Neu5Ac(a2-8)Neu5Ac(a2-3)]Gal(b1-4)Glc
Method in brief: as §1

[3] = target: Neu5Ac(a2-8)Neu5Ac(a2-3)Gal(b1-4)Glc
Method in brief: as §1

[4] = target: Neu5Ac(a2-8)Neu5Ac(a2-3)Gal(b1-4)GlcNAc
Method in brief: as §1

[5] = target: Neu5Ac(a2-8)Neu5Ac(a2-3)[Gal(b1-3)GalNAc(b1-4)]Gal(b1-4)Glc
Method in brief: as §1

[6] = target: Neu5Ac(a2-8)Neu5Ac(a2-3)[GalNAc(b1-4)]Gal(b1-4)Glc
Method in brief: as §1

[7] = target: Neu5Ac(a2-8)Neu5Ac(a2-8)Neu5Ac
Method in brief: as §1

[8] = target: Neu5Ac(a2-8)Neu5Ac(a2-8)Neu5Ac(a2-3)Gal(b1-4)Glc
Method in brief: as §1

[9] = target: Neu5Ac(a2-8)Neu5Ac(a2-8)Neu5Ac(a2-3)[Gal(b1-3)GalNAc(b1-4)]Gal(b1-4)Glc
Method in brief: as §1

[10] = target: Neu5Ac(a2-8)Neu5Ac(a2-8)Neu5Ac(a2-3)[GalNAc(b1-4)]Gal(b1-4)Glc
Method in brief: as §1

[11] = target: Neu5Ac(a2-8)Neu5Ac(a2-8)Neu5Ac(a2-8)Neu5Ac(a2-3)[GalNAc(b1-4)]Gal(b1-4)Glc
Method in brief: as §1

[12] = target: Neu5Ac(a2-8)Neu5Gc(a2-3)Gal(b1-4)GlcNAc
Method in brief: as §1

[13] = target: Neu5Ac(b2-6)Gal(b1-4)GlcNAc
Method in brief: as §1

Neu5Ac(b2-6)GalNAc = target: Neu5Ac(b2-6)GalNAc
Method in brief: as §1

[14] = target: Neu5Ac9Ac(a2-3)Gal(b1-3)GlcNAc
Method in brief: as §1

[15] = target: Neu5Ac9Ac(a2-3)Gal(b1-4)GlcNAc
Method in brief: as §1

[16] = target: Neu5Ac9Ac(a2-6)Gal(b1-4)GlcNAc
Method in brief: as §1

[17] = target: Neu5Gc(a2-3)Gal(b1-3)GlcNAc
Method in brief: as §1

[18] = target: Neu5Gc(a2-3)Gal(b1-3)[Fuc(a1-4)]GlcNAc
Method in brief: as §1

Neu5Gc(a2-3)Gal(b1-4)Glc = target: Neu5Gc(a2-3)Gal(b1-4)Glc
Method in brief: as §1

[19] = target: Neu5Gc(a2-3)Gal(b1-4)GlcNAc
Method in brief: as §1

[20] = target: Neu5Gc(a2-3)Gal(b1-4)GlcNAc(b1-3)Gal(b1-4)GlcNAc(b1-2)Man(a1-3)[Neu5Gc(a2-3)Gal(b1-4)GlcNAc(b1-3)Gal(b1-4)GlcNAc(b1-2)Man(a1-6)]Man(b1-4)GlcNAc(b1-4)GlcNAc
Method in brief: as §1

[21] = target: Neu5Gc(a2-3)Gal(b1-4)[Fuc(a1-3)]GlcNAc
Method in brief: as §1

[22] = target: Neu5Gc(a2-6)Gal(b1-4)GlcNAc
Method in brief: as §1

Neu5Gc(a2-6)GalNAc = target: Neu5Gc(a2-6)GalNAc
Method in brief: as §1

[23] = target: Neu5Gc(a2-8)Neu5Ac(a2-3)Gal(b1-4)GlcNAc
Method in brief: as §1

[24] = target: Neu5Gc(a2-8)Neu5Gc(a2-3)Gal(b1-4)GlcNAc
Method in brief: as §1

[25] = target: Neu5Gc(a2-8)Neu5Gc(a2-3)Gal(b1-4)GlcNAc(b1-3)Gal(b1-4)GlcNAc
Method in brief: as §1

[26] = target: Neu5Gc(a2-8)Neu5Gc(a2-6)Gal(b1-4)GlcNAc
Method in brief: as §1

[27] = target: Neu5Gc(b2-6)Gal(b1-4)GlcNAc
Method in brief: as §1

B1: Si Bti9 1b-HA (Solanum lycopersicum) (protein)
chain: MFESRPRSVLSLGVFVILVYLSSVPLPVNSQCNRGCDLALASFYVWRGSNLTLISEMFSTSIADIVSYNNRDNIPNQDSVIAGTRINIPFRCDCLNDGEVLGHAFPYRVKSGDTYDLVARNYSDLTTAQWMMKFNSYPENNIPNTVNLSVVVNCSCGNSDVSKDFGLFVTYPVRAEDNLTSVASAANVSEDIIRRYNPAAVSILDIGQGIIYIPGRDRNGNFPPLPTSTDGLSGGAKAPLFFNPAFLYKVVELKLAGRSRTSGYPYDVPDYAGYPYDVPDYALEVLFQ
Neu5Ac(a2-8)Neu5Ac
  glycan array binding signal (z-score): -0.251
[1]
  glycan array binding signal (z-score): -0.196
[2]
  glycan array binding signal (z-score): -0.079
[3]
  glycan array binding signal (z-score): 0.02
[4]
  glycan array binding signal (z-score): -0.499
[5]
  glycan array binding signal (z-score): -0.273
[6]
  glycan array binding signal (z-score): -0.411
[7]
  glycan array binding signal (z-score): -0.43
[8]
  glycan array binding signal (z-score): -0.184
[9]
  glycan array binding signal (z-score): -0.014
[10]
  glycan array binding signal (z-score): -0.298
[11]
  glycan array binding signal (z-score): -0.344
[12]
  glycan array binding signal (z-score): -0.539
[13]
  glycan array binding signal (z-score): -0.106
Neu5Ac(b2-6)GalNAc
  glycan array binding signal (z-score): -0.222
[14]
  glycan array binding signal (z-score): 0.769
[15]
  glycan array binding signal (z-score): -0.425
[16]
  glycan array binding signal (z-score): 0.888
[17]
  glycan array binding signal (z-score): -0.505
[18]
  glycan array binding signal (z-score): -0.521
Neu5Gc(a2-3)Gal(b1-4)Glc
  glycan array binding signal (z-score): -0.117
[19]
  glycan array binding signal (z-score): -0.219
[20]
  glycan array binding signal (z-score): 0.133
[21]
  glycan array binding signal (z-score): -0.427
[22]
  glycan array binding signal (z-score): 0.078
Neu5Gc(a2-6)GalNAc
  glycan array binding signal (z-score): -0.192
[23]
  glycan array binding signal (z-score): -0.4
[24]
  glycan array binding signal (z-score): -0.54
[25]
  glycan array binding signal (z-score): -0.452
[26]
  glycan array binding signal (z-score): -0.528
[27]
  glycan array binding signal (z-score): -0.472
